This passage reports binding signal results from PMC9911399, “Two distinct binding modes provide the RNA-binding protein RbFox with extraordinary sequence specificity”.

First the molecules themselves.
B1: GUGCUUA (DNA:RNA)
RNA: GGGAGACCGGAAUUCAGAUUGUCCGUGCUUAUUAAAUCCCGUCGUAGCCACCA
DNA 1: CAATCTGAATTCCGGTCTCCC
DNA 2: TGGTGGCTACGACGGGATT
B2: UUCGCCG (DNA:RNA)
RNA: B1 RNA with G25U, G27C, C28G, U29C, U30C, A31G
DNA 1: CAATCTGAATTCCGGTCTCCC
DNA 2: TGGTGGCTACGACGGGATT
B3: CCGGCAA (DNA:RNA)
RNA: B1 RNA with G25C, U26C, C28G, U29C, U30A
DNA 1: CAATCTGAATTCCGGTCTCCC
DNA 2: TGGTGGCTACGACGGGATT
B4: AACCGAG (DNA:RNA)
RNA: B1 RNA with G25A, U26A, G27C, U29G, U30A, A31G
DNA 1: CAATCTGAATTCCGGTCTCCC
DNA 2: TGGTGGCTACGACGGGATT
B5: GCAAAGG (DNA:RNA)
RNA: B1 RNA with U26C, G27A, C28A, U29A, U30G, A31G
DNA 1: CAATCTGAATTCCGGTCTCCC
DNA 2: TGGTGGCTACGACGGGATT
B6: AGUCUCG (DNA:RNA)
RNA: B1 RNA with G25A, U26G, G27U, U30C, A31G
DNA 1: CAATCTGAATTCCGGTCTCCC
DNA 2: TGGTGGCTACGACGGGATT
B7: AGUAGCG (DNA:RNA)
RNA: GGGAGACCGGAAUUCAGAUUGUCCAGUAGCGUUAAAUCCCGUCGUAGCCACCA
DNA 1: CAATCTGAATTCCGGTCTCCC
DNA 2: TGGTGGCTACGACGGGATT
B8: AAGCCAU (DNA:RNA)
RNA: B1 RNA with G25A, U26A, U29C, U30A, A31U
DNA 1: CAATCTGAATTCCGGTCTCCC
DNA 2: TGGTGGCTACGACGGGATT
B9: UCGGCAG (DNA:RNA)
RNA: B7 RNA with A25U, G26C, U27G, A28G, G29C, C30A
DNA 1: CAATCTGAATTCCGGTCTCCC
DNA 2: TGGTGGCTACGACGGGATT
B10: UUUCCCG (DNA:RNA)
RNA: B7 RNA with A25U, G26U, A28C, G29C
DNA 1: CAATCTGAATTCCGGTCTCCC
DNA 2: TGGTGGCTACGACGGGATT
B11: AUCCGCC (DNA:RNA)
RNA: B7 RNA with G26U, U27C, A28C, G31C
DNA 1: CAATCTGAATTCCGGTCTCCC
DNA 2: TGGTGGCTACGACGGGATT
B12: UAAGUGG (DNA:RNA)
RNA: B7 RNA with A25U, G26A, U27A, A28G, G29U, C30G
DNA 1: CAATCTGAATTCCGGTCTCCC
DNA 2: TGGTGGCTACGACGGGATT
B13: AGCAUCA (DNA:RNA)
RNA: B7 RNA with U27C, G29U, G31A
DNA 1: CAATCTGAATTCCGGTCTCCC
DNA 2: TGGTGGCTACGACGGGATT
B14: CUGAUGA (DNA:RNA)
RNA: B1 RNA with G25C, C28A, U30G
DNA 1: CAATCTGAATTCCGGTCTCCC
DNA 2: TGGTGGCTACGACGGGATT
B15: GCAAGCC (DNA:RNA)
RNA: B7 RNA with A25G, G26C, U27A, G31C
DNA 1: CAATCTGAATTCCGGTCTCCC
DNA 2: TGGTGGCTACGACGGGATT
B16: GCAUAUG (DNA:RNA)
RNA: B1 RNA with U26C, G27A, C28U, U29A, A31G
DNA 1: CAATCTGAATTCCGGTCTCCC
DNA 2: TGGTGGCTACGACGGGATT
B17: UUUGAUA (DNA:RNA)
RNA: B1 RNA with G25U, G27U, C28G, U29A
DNA 1: CAATCTGAATTCCGGTCTCCC
DNA 2: TGGTGGCTACGACGGGATT
B18: GUUAUAG (DNA:RNA)
RNA: B7 RNA with A25G, G26U, G29U, C30A
DNA 1: CAATCTGAATTCCGGTCTCCC
DNA 2: TGGTGGCTACGACGGGATT
B19: GGACGCA (DNA:RNA)
RNA: B7 RNA with A25G, U27A, A28C, G31A
DNA 1: CAATCTGAATTCCGGTCTCCC
DNA 2: TGGTGGCTACGACGGGATT
B20: CCUGGAA (DNA:RNA)
RNA: B7 RNA with A25C, G26C, A28G, C30A, G31A
DNA 1: CAATCTGAATTCCGGTCTCCC
DNA 2: TGGTGGCTACGACGGGATT

Numbering of substitutions follows the chain as printed; changes in the protein carry UniProt numbers. Some of the results follow.

For this test, the target named is T1, RBFOX1 RRM RbFoxmut (Fox-RRM*) (Homo sapiens, UniProt Q9NWB1 109-208, R118D;E147R;N151S;E152T).
T1 sequence: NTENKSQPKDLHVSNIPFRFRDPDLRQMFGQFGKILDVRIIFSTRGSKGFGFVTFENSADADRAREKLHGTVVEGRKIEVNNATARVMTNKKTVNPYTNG
Briefly: EMSA; HiTS-Eq, 1 nM pool, 10 min; buffer printed only for the single-RNA assays: 10 mM Tris pH 7.5, 150 mM NaCl, 3.4 mM EDTA, 0.001% NP-40, 30 C. The following applies: tags: His6 N-terminal (pET28a); label: 5' 32P. A digest of the protocol: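 A pool of RNA with 7 randomized nucleotides, 5′-radiolabelled and with DNA-annealed flanks, was equilibrated at 1 nM for 10 min in 50 µL with purified RbFox RRM, wild type or mutant, across increasing protein concentrations. Free RNA was separated by 8% native PAGE, excised, reverse-transcribed, barcoded by PCR and sequenced. Relative association constants were obtained from read-count changes of each RNA species versus the control reaction and normalised to the cognate motif.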
For the molecule B1, the binding signal is 0.133 KA relative to UGCAUGU.

As to B2, the binding signal was 0.0946 KA relative to UGCAUGU.

Take B3: the binding signal is 0.0698 KA relative to UGCAUGU.

On to B4, for which the binding signal was 0.0834 KA relative to UGCAUGU.

For the molecule B5, the binding signal was 0.0716 KA relative to UGCAUGU.

In the case of B6, the binding signal is 0.197 KA relative to UGCAUGU.

In the case of B7, the binding signal is 0.12 KA relative to UGCAUGU.

As to B8, the binding signal was 0.0896 KA relative to UGCAUGU.

With B9, the binding signal is 0.0804 KA relative to UGCAUGU.

For the molecule B10, the binding signal was 0.101 KA relative to UGCAUGU.

In the case of B11, the binding signal was 0.107 KA relative to UGCAUGU.

As to B12, the binding signal was 0.102 KA relative to UGCAUGU.

For the molecule B13, the binding signal was 0.233 KA relative to UGCAUGU.

For the molecule B14, the binding signal is 0.0926 KA relative to UGCAUGU.

As for B15, the binding signal is 0.0526 KA relative to UGCAUGU.

Consider B16, for which the binding signal is 0.197 KA relative to UGCAUGU.

As to B17, the binding signal is 0.0954 KA relative to UGCAUGU.

With B18, the binding signal was 0.151 KA relative to UGCAUGU.

With B19, the binding signal is 0.12 KA relative to UGCAUGU.

With B20, the binding signal was 0.15 KA relative to UGCAUGU.
